The list shows a part of the results. These are noisy estimates, calculated here from bound and input reads.
What follows are sequences tested against T1, Pho4 (S. cerevisiae) (UniProt P07270) (assay: relative binding free energy (BET-seq); higher = weaker binding). Details: reference: library average.
T1 sequence: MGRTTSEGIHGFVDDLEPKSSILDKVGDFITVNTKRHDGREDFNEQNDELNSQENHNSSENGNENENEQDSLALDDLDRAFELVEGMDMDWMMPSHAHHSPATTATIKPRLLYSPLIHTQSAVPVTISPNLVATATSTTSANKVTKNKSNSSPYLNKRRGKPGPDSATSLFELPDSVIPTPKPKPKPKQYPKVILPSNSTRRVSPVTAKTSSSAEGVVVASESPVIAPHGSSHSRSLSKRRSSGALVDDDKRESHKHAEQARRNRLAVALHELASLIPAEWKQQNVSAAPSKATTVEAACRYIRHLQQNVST

| Sequence | relative binding free energy [kcal/mol] |
| --- | --- |
| CGATGCACGTGAGTGA | 0.32 |
| GTGGTCACGTGTGGGC | 0.21 |
| GCGTTCACGTGTTTGA | 0.11 |
| GAGTGCACGTGAAGTG | 0.18 |
| TGGAACACGTGCTGGT | 0.02 |
| GGGTACACGTGCGTGG | 0.03 |
| TGGTACACGTGTTGTT | 0.06 |
| CTTGGCACGTGGGGCA | -0.22 |
| TTATGCACGTGGATTT | 0 |
| GTTGTCACGTGCTGAT | 0.11 |
| GGATGCACGTGTGCTA | 0.08 |
| GTTGGCACGTGTGTGT | -0.05 |
| TTGATCACGTGGCAGG | 0.05 |
| GCTGGCACGTGGGGCT | -0.2 |
| ACGGACACGTGTTGTG | 0.03 |
| TTGCACACGTGACGGG | 0.11 |
| AGGGCCACGTGATTGT | 0.07 |
| AGGCGCACGTGCTAGG | -0.19 |
| TTGGTCACGTGGCTAG | -0.1 |
| TTTTTCACGTGGTAGA | 0.32 |
| ATAAACACGTGTAATG | 0.23 |
| ATTATCACGTGGGCTA | 0.02 |
| TGATACACGTGTAAGT | 0.18 |

| Sequence | relative binding free energy [kcal/mol] |
| --- | --- |
| GAAAGCACGTGTGTTG | -0.09 |
| CGGTACACGTGGAAGG | 0.1 |
| GTGGTCACGTGGGCTC | 0 |
| GTTACCACGTGGGGTC | -0.01 |
| CGCTTCACGTGGGAGG | 0.06 |
| TTAGTCACGTGCGGCG | -0.07 |
| TGGCTCACGTGGTTTA | 0.18 |
| CGGTGCACGTGAGGCT | 0.02 |
| CTGTTCACGTGTCTGT | 0.18 |
| AATGACACGTGACGGT | 0.14 |
| CGGCGCACGTGGTTTG | -0.22 |
| TTCGACACGTGGCGGG | 0.14 |
| GGGAACACGTGGGGTT | -0.03 |
| AGTGGCACGTGTTTGG | -0.07 |
| GTGTGCACGTGTATGA | 0.07 |
| CGATGCACGTGAGGGG | 0.15 |
| TGGGGCACGTGAATGA | 0.22 |
| AAGTTCACGTGATGAG | 0.33 |
| TGACGCACGTGGAGGG | -0.11 |
| AAGGTCACGTGGCTGT | 0.06 |
| CGGGGCACGTGTGTCA | -0.06 |
| GTGTTCACGTGGGGGT | 0.2 |
| GGTTACACGTGATCGA | 0.38 |

| Sequence | relative binding free energy [kcal/mol] |
| --- | --- |
| AGTAGCACGTGAGGAT | 0.09 |
| TATATCACGTGATGTG | 0.22 |
| TTTGCCACGTGCGTGT | -0.15 |
| CGTGGCACGTGTTGTC | 0.08 |
| GGGATCACGTGGGCAA | 0.02 |
| TGGTTCACGTGATCGG | 0.34 |
| TGTGGCACGTGGTATA | -0.14 |
| GGGGGCACGTGGTTAC | -0.06 |
| TTGTTCACGTGTGAGA | 0.39 |
| TTTGGCACGTGACGTC | 0.17 |
| TAAGGCACGTGTTTAT | -0.12 |
| TGGCGCACGTGTTGCT | -0.14 |
| GTCTGCACGTGTAGTA | -0.07 |
| GGGGGCACGTGCGCGT | -0.33 |
| ATAATCACGTGGAGGA | 0.21 |
| GCTTTCACGTGGCGTA | 0.37 |
| TGTAGCACGTGCTAAA | 0.07 |
| ATGGGCACGTGAAATA | 0.17 |
| TACCTCACGTGGTGGG | 0.21 |
| GGGTCCACGTGGGGGT | -0.1 |
| GGCTGCACGTGATGTA | 0.14 |
| TAGGTCACGTGGATAA | 0.19 |
| TTGGTCACGTGACGTA | 0.24 |

| Sequence | relative binding free energy [kcal/mol] |
| --- | --- |
| CGTTTCACGTGCGGGA | 0.21 |
| AGTTACACGTGAGTGT | 0.25 |
| GGGATCACGTGGTTTT | 0.35 |
| GCTAGCACGTGTGGTA | -0.06 |
| GTCTGCACGTGGATAG | 0.19 |
| TTCTCCACGTGGGTGG | -0.21 |
| AGGGTCACGTGAGATT | 0.28 |
| TAAAGCACGTGGGATT | -0.2 |
| TCGTGCACGTGTTGAT | -0.15 |
| AGTTACACGTGGGGGC | -0.01 |
| GCTTTCACGTGGTGCT | 0.17 |
| TAGGGCACGTGAAGGC | 0.13 |
| AAGGGCACGTGGCGAT | -0.14 |
| TGACGCACGTGCGGAT | 0.03 |
| CCGGTCACGTGTGGGG | 0.04 |
| ATCTGCACGTGGTTGT | -0.02 |
| TTAGGCACGTGTTCAG | -0.14 |
| GATATCACGTGGGGCA | 0 |
| GTTGCCACGTGGATGG | -0.06 |
| GCGCTCACGTGGGGGA | 0.04 |
| TTTTGCACGTGATTTA | 0.05 |
| AGCGGCACGTGGGAGT | -0.21 |
| TCGGTCACGTGCGAGT | 0.2 |

| Sequence | relative binding free energy [kcal/mol] |
| --- | --- |
| GGGCGCACGTGGAGAG | 0.07 |
| AATGGCACGTGGGACT | -0.19 |
| TTTAGCACGTGCTTAT | -0.07 |
| AAGTTCACGTGCTTTA | 0.24 |
| AGGAACACGTGTGGTG | 0.08 |
| CTAGGCACGTGAGGAG | 0.05 |
| TGGGACACGTGACGTC | 0.29 |
| GATGTCACGTGTGCGA | 0.19 |
| TTATTCACGTGAACAG | 0.4 |
| GCTGTCACGTGGGTTA | 0.1 |
| TTCGACACGTGTTCGT | 0.11 |
| CTGTTCACGTGCGTAG | 0.14 |
| GATGGCACGTGGTCTT | -0.12 |
| CAAGCCACGTGTGGGG | 0.03 |
| TGAATCACGTGTGAGT | 0.31 |
| CTTGGCACGTGCGGTT | -0.16 |
| GTGAACACGTGGGAAT | 0.1 |
| AGGGGCACGTGAAGTG | 0.25 |
| ATAGCCACGTGGTTTT | -0.14 |
| TAAGACACGTGTGATT | 0.2 |
| TGATTCACGTGGCGGA | 0.32 |
| TATAGCACGTGTAGGA | -0.08 |
| CTGTGCACGTGTCGTA | 0.15 |
